Measured values published in paper PMC5515716 (Journal of immunology (Baltimore, Md. : 1950), 2017).

These sequences were tested on CD8^+ T cells in PBMC of HSV-seropositive individuals (assay: CD107a/b cytotoxicity marker assay on peptide-stimulated CD8+ T cells). Conditions: 10 HLA-A*0201(+) HSV-1 seropositive individuals, individual peptide 10µg/ml.
Format: cell-based, human

| Sequence | percentage of CD107^a/b+CD8^+ T cells induced by individual peptide |
| --- | --- |
| TLRGLFFSV [UL43_386–394] | up to 5.2% |
| FIPQYLSAV [UL25_572–580] | up to 4.5% |
| QLAHLVYVL [UL10_162–170] | up to 6.8% |
| FLGGHVAVA [UL43_302–310] | up to 5.6% |
| FLGAGALAV [UL43_272–280] | up to 4.9% |
| RLTGYPAGI [UL44_443–451] | up to 5.1% |
| ALMLRLLRT [UL9_196–204] | up to 5.1% |
| MMLRDRWSL [UL26_221–229] | up to 4.7% |
| FLGDDPSPA [UL44_400–408] | up to 5.7% |

Where no end group is shown, it is not given here.
